# Laboratory results: article PMC6919601, “Identification of Plasmodium dipeptidyl aminopeptidase allosteric inhibitors by high throughput screening” (PLoS ONE, 2019)
# The whole screen tested about 110,000 compounds, of which about 230 (0.21%) showed an effect of 50% or more. Some of the results follow.
# Molecular target: DPAP1 (Plasmodium falciparum, UniProt Q8IIJ9)
# Assay: primary screen, percent inhibition; read by cleavage of a fluorogenic dipeptide substrate; higher = more effect of the substance
# Set-up: species or system P. falciparum D10 trophozoite lysates; single well
# 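Further: 30 min substrate incubation versus DMSO and 10 µM JCP410 controls.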
# Sequence of DPAP1 (Q8IIJ9 whole entry, looked up): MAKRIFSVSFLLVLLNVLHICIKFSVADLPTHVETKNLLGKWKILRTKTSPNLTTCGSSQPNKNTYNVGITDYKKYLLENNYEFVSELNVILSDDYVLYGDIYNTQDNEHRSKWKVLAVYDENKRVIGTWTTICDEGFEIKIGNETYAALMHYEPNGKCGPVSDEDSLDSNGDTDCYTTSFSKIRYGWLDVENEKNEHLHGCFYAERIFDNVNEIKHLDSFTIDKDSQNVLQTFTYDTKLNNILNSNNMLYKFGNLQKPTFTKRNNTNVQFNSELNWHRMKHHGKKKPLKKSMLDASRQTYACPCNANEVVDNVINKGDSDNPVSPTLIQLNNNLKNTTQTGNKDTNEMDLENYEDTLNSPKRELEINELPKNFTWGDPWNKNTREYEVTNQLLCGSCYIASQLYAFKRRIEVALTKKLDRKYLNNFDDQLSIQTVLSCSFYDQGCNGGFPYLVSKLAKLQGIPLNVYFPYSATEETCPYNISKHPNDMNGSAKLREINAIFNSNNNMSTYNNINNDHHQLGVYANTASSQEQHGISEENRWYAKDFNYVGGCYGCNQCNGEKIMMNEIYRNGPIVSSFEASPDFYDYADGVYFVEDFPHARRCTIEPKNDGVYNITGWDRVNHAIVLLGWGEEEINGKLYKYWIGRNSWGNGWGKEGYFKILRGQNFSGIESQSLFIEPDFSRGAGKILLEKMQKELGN
row,SMILES,% Inhibition @ 10 uM [%]
1,C=CCNC(=O)c1ccc2c(c1)C1C3CCC(C3)C1C(c1ccccc1)N2 (centres unmarked),2.44
2,CCOC(=O)c1[nH]c2c(c1-c1ccccc1)C(=O)CC(c1ccc(OCC)cc1)C2 (centres unmarked),-3.21
3,COc1ccc2nc3sc(C(=O)N4CCN(c5ccccn5)CC4)cc3cc2c1,-0.426
4,Cc1cc(OCC(=O)N2CCCCCC2)ccc1Cl,0.634
5,COCCNC(=O)C1Sc2nnc(C)n2NC1c1ccc(Cl)cc1 (centres unmarked),-5.41
6,O=C(NCCCN1CCN(Cc2ccccc2)CC1)c1csc2c1CCCC2,-6.95
7,CC(=O)CCS(=O)(=O)c1ccc(C)c(C)c1,4.57
8,Oc1cc(Cc2ccccc2)nc2c(-c3ccc(Cl)cc3)cnn12,6.06
9,Cc1ccc2nc3c(cc(C(=O)NCCc4ccccc4)c(=N)n3Cc3ccco3)c(=O)n2c1,5.17
10,O=C(O)C1Cn2c(nc3c(c2=O)C2(CCCC2)Cc2ccccc2-3)S1 (centres unmarked),-7.83
11,Cc1ccc2c(c1)cc1c(=O)n(CC(=O)NCCCN3CCOCC3)nc(C)n12,-1.7
12,Cc1ccc2[nH]c(C)c(CCNC(=O)c3scc4c3OCCO4)c2c1,4.19
13,O=C(Nc1ccccc1)c1cccc(S(=O)(=O)Nc2ccc(Cl)cn2)c1,4.8
14,Cc1cc(N2CCC(C)CC2)nc2cccc(O)c12,-4.74
15,CCCc1nnc2sc(NC(=O)C(CC)Oc3ccccc3)nn12 (centres unmarked),-0.659
16,CC(C)Oc1ccc(CNC(=O)CCn2c(=O)c3cccn3c3cccnc32)cc1,-4.51
17,CCCCN(C)C(=O)c1cnc2ccc(S(=O)(=O)N3CCOCC3)cc2c1O,-5.64
18,Clc1ccc(-c2nc3ccccc3[nH]2)c(Cl)c1,-2.63
19,CCOc1ccc(N2C(=O)CC(NCc3ccc(OC)cc3)C2=O)cc1 (centres unmarked),0.189
20,Cc1ccccc1CS(=O)(=O)C[C@H](NC(=O)N1CCOCC1)C(=O)N[C@@H](CCc1ccccc1)C(=O)c1nc2ccccc2o1,-5.21
21,CC1=C(C(=O)OCCc2ccccc2)C(c2ccc(Cl)c(Cl)c2)CC(=O)N1 (centres unmarked),3.34
22,COC(=O)c1cc(-c2ccc(C)cc2)c2c(=O)[nH]c(=O)n(C)c2n1,1.12
23,CC1CCCCN1c1nc2c(S(=O)(=O)c3ccccc3)nnn2c2ccc(Cl)cc12 (centres unmarked),-4.85
24,Cc1ccccc1OCCn1c(C2CCCO2)nc2ccccc21 (centres unmarked),2.14
25,Cc1ccc2oc(=O)c3cnn(CC(=O)N4CCC(Cc5ccccc5)CC4)c3c2c1,3.01

row,SMILES,% Inhibition @ 10 uM [%]
1,O=C(c1nc(-c2ccc(Cl)cc2)n2c1CCCCC2)N1CCOCC1,2.36
2,Cc1cc(NC(=O)NC(=O)c2ccc(C(F)(F)F)cc2)no1,-3.77
3,Cc1nsc2ccc3ccccc3c12,3.36
4,C#C/C(C)=C/COC(=O)Cn1c(=O)sc2ccccc21,-3.37
5,Cc1ccc(-c2c(NC3CCCc4ccccc43)c(=O)c2=O)cc1 (centres unmarked),-2.28
6,Cc1ccccc1OCCCn1ccnc1,-2.28
7,CCOc1ccc(S(=O)(=O)NCc2ccccc2OC)cc1,0.727
8,Cc1cccc(CN2CCN(CC(=O)NCCCN3CCCC3=O)C2=O)c1,-7.85
9,CCCCC(=O)Nc1ncc2c(n1)CC(C)(C)CC2=O,-2.54
10,CCCOc1ccc(C2C(C(=O)OC)=C(C)N(C)C(C)=C2C(=O)OC)cc1,6.12
11,CC(C)OCCCn1c(=O)c2ccccc2n2c(CCC(=O)O)nnc12,-4.58
12,O=S(=O)(c1ccc(Cc2ccc(S(=O)(=O)N3CCOCC3)cc2)cc1)N1CCOCC1,3.25
13,CCOc1cc2c(cc1OCC)C1C(C(=O)NCCOC)c3ccccc3C(=O)N1CC2 (centres unmarked),-5.29
14,Cc1c(C(=O)NCc2ccccc2Cl)oc2ccc(S(=O)(=O)N3CCC(C)CC3)cc12,3.33
15,Cc1cccc(C)c1NC(=O)c1ccc(Cl)cc1,-3.82
16,CCOC(=O)C(C(=O)OCC)=C(/C=C/N(C)C)N(C)C,-3.75
17,Cc1ccc(-c2c(C#N)c(N)nc3c2CCCCCCCCCC3)cc1,-0.711
18,COCc1nnc(NC(=O)c2ccc(S(=O)(=O)N(C)Cc3ccccc3)cc2)o1,0.457
19,COc1cc(CNS(=O)(=O)c2ccc3[nH]c4c(c3c2)CCCC4)cc(OC)c1OC,-2.5
20,Cc1ccc(Cn2cc(CCC(=O)N3CCC(C(N)=O)CC3)c3ccccc32)cc1,-0.822
21,CN(CCOC12CC3CC(CC(C3)C1)C2)S(=O)(=O)c1ccc(C(C)(C)C)cc1,3.68
22,CC(=O)c1cccc(NC(=O)c2ccc(N(Cc3ccccc3C)S(C)(=O)=O)cc2)c1,-2.92
23,Nc1ccccc1C(=O)N1CCN(c2ccc(Cl)cc2)CC1,-7.17
24,CCOc1cc(/C=C(/C#N)c2nc(-c3cc4ccccc4oc3=O)cs2)ccc1O,4.35
25,CC(C)C[C@H](NC(=O)c1cccc(-c2ncccn2)c1)C(=O)NCC#N,-5.2

row,SMILES,% Inhibition @ 10 uM [%]
1,Cc1nn(C(=O)c2ccc(COc3ccccc3Cl)o2)c(C)c1Br,2.1
2,CCOC(=O)/C(C#N)=C\c1ccc(N(CC)CC)cc1,4.67
3,COc1ccc(NC(=O)CNS(=O)(=O)c2ccc(Br)cc2)cc1OC,0.361
4,CSc1cccc(NC(=O)CN(Cc2ccc(F)cc2)S(=O)(=O)c2ccccc2)c1,-0.68
5,Cc1ccc(-n2nc(C)c3c2OC(N)=C(C#N)C3c2cccs2)cc1 (centres unmarked),7.93
6,COC(=O)c1ccc(/C=N/N=C(\N)c2nonc2N)cc1,-2.98
7,O=C(CCN1C(=O)c2ccccc2C1=O)N1CCC(c2ccccc2)C1 (centres unmarked),-2.67
8,Cc1ccc2c(CN(Cc3cccs3)C(C)C)cc(=O)oc2c1,0.00706
9,CC(Oc1ccccc1F)C(=O)Nc1nc(-c2ccc(S(=O)(=O)N3CCOCC3)cc2)cs1 (centres unmarked),3.93
10,CCC(C)NC(=O)c1ccc(-n2c(C)cc3c2CCC(C)C3)cc1 (centres unmarked),-3.6
11,CC1CCCC(C)N1CCCNC(=O)CCc1cn(C)c2ccccc12 (centres unmarked),5.6
12,Cc1c(CNCc2ccc(OC(C)C)cc2)c(C(=O)O)c(C)n1Cc1ccccc1F,1.41
13,CCOC(=O)c1cnn2c(C)cc(-c3ccc(OCC)cc3)nc12,-5.2
14,Cn1c2ccccc2c2cnn(CC(=O)N3CCN(c4ncccn4)CC3)c(=O)c21,53.7
15,CCOc1ccc(S(=O)(=O)NCc2ccccn2)c(C)c1C,-3.33
16,COc1ccc(C)cc1NC(=O)c1cccc(OC(F)F)c1,-7.32
17,CCCNc1cc(C)oc(=O)c1C(C)=O,-0.828
18,CCN1CCC(NCc2ccccc2F)CC1,-0.292
19,CCOc1cccc(C(=O)N[C@@H](CC2CCCCC2)C(=O)NCC#N)c1,1.35
20,CCc1nc(SC)ncc1C(=O)NC1CCCCC1,-3.19
21,COc1ccc(/C=N/CCN2Cc3ccccc3C2=O)cc1OC,1.76
22,COC(=O)c1cc(=O)n2c(-c3ccccc3)csc2n1,-5.28
23,Cc1nnc(SC2CCN(S(=O)(=O)c3ccc(F)cc3)CC2)s1,2.05
24,CCN(CC)S(=O)(=O)c1cccc(C(=O)Nc2ccccc2C(=O)O)c1,-0.0217
25,C/C(=N\Cc1ccccc1)c1c(O)c2ccccc2n(Cc2ccccc2)c1=O,1.43

row,SMILES,% Inhibition @ 10 uM [%]
1,Cc1oc(-c2ccc(C(=O)NC3CCCc4ccccc43)cc2)nc1CS(=O)(=O)c1ccccc1 (centres unmarked),-3.1
2,CCc1nc(C(=N)NOC(=O)c2cc3c([nH]c4ccccc43)c(C)n2)no1,11.3
3,O=S(=O)(c1cccc2nonc12)N1CCc2ccccc21,-3.18
4,CCCCCCC1CC(=O)N(Cc2ccc(C(=O)OC)cc2)C(=O)N1 (centres unmarked),-6.94
5,COc1ccc(C2OC(=O)CC2C(=O)NC2CCCC(C)C2C)cc1OC (centres unmarked),-2.92
6,Cc1ccc(C2C(C#N)=C(N)Oc3[nH]nc(-c4ccc5ccccc5c4)c32)o1 (centres unmarked),1.57
7,CCOc1ccc(NC2=C(Cl)C(=O)N(c3ccccc3C)C2=O)cc1,-1.06
8,CC(=O)c1c(-c2ccccc2)nc2n(C)c3ccccc3n12,9.53
9,CC(C)CCNC(=O)CNC(=S)N(Cc1ccccc1)Cc1cccnc1,-3.94
10,COc1cccc(CNC(=O)CNC(=S)N(CCCN2CCOCC2)Cc2cccs2)c1,2.84
11,CC12CC3CC(C)(C1)CC(NC=O)(C3)C2,-8.88
12,O=S(=O)(NCc1cccnc1)c1ccc(-c2cc(C(F)(F)F)no2)s1,-5.31
13,CCCC(=O)n1nc(-c2ccco2)nc1NCc1cccs1,-3.24
14,CCOc1cccc2c1OC1(CCCCC1)N1N=C(c3cccnc3)CC21 (centres unmarked),7.95
15,CC(C)CCNC(=O)CC(c1cccs1)N1Cc2ccccc2C1=O (centres unmarked),-4.21
16,CCO/C(O)=C(\C=N\C1CC1)C(=O)c1cc(F)c(F)cc1Cl,0.408
17,Cc1ccc(CCN2CC(C(=O)NCc3ccc(C)cc3)CC2=O)cc1 (centres unmarked),1.62
18,Cc1cc(C)nc(NC(=O)c2ccc3c(c2)OCO3)c1,3.21
19,CN(C)CCCN(CCCN(C)C)Cc1cc([N+](=O)[O-])ccc1Cl,4.28
20,COc1cc2c(cc1OC)C(C(=O)NCc1ccc(F)cc1)C(c1cccnc1)N(C)C2=O (centres unmarked),0.287
21,Cc1ccc(S(=O)(=O)Cc2ccc(C(=O)NCCCN3CCCC3=O)o2)cc1,-3.09
22,CC12CN3CC(C)(CN(C1)C3c1ccc(Br)cc1)C2 (centres unmarked),4.64
23,COc1ccc(/C=N/N=C2\SCC(=O)N2Cc2ccc(F)cc2)cc1OC,0.279
